The structures appear in SMILES notation. Among all 44,000 compounds or so, about 340 (0.77%) were called active. Inconclusive results (about 5%) are left out. Calls come from the whole dose curve; as a rule, active = well fitted inhibition curve with a large enough effect; inconclusive = small, poorly fitted or top-dose-only effect; inactive = flat fitted curve, though single readings scatter. The list shows a part of the results.
Potency is the fitted concentration of half-maximal effect.

The nature of this test: Acumen qHTS Assay for Inhibitors of the mTORC1 Signaling Pathway in MEF (Tsc2-/-, p53-/-) Cells: Sytravon.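 For activity change, negative = inhibition: plate controls were DMSO for no effect and rapamycin for full effect.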 Note: nearly all actives have a fitted effect of over 50% in size. To be noted: phospho-rpS6 immunofluorescence/PI, 24 h; series mostly up to 38.3 µM; activity change, negative = inhibition: at the top concentration. Put shortly: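 Cell-based qHTS: Tsc2-/- p53-/- MEF, 24 h cpd, 37 °C; fix/perm, anti-phospho-S6 Alexa-488 + PI; Acumen 488 nm scan; pS6/PI ratio, % positive cells; rapamycin 7.5 nM = inhibition ref; PI count = viability.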
(Quantitative high-throughput screening tests each substance at several concentrations.)
Turning to `Cc1cccc(-n2c(SCC(=O)Nc3ccccc3C)nc3c(oc4ccccc43)c2=O)c1`, the “activity change, negative = inhibition” value was inactive: -3.05%.
Still for that read-out and setting: next, `COC(=O)c1ccc(NC(=O)CN(c2cccc(C(F)(F)F)c2)S(C)(=O)=O)cc1`: inactive: 3.81%.
Same read-out and setting: next, `CCc1ccccc1N1C(=O)N(C)c2ccccc2S1(=O)=O`: inactive: -12.1%; `CSc1nn(Cc2ccc(F)cc2)c(N)c1S(=O)(=O)c1ccc(Cl)cc1`: inactive: -13.5%; `COc1cccc(CSc2nc(-c3ccccc3OC)nc3c2Cc2c(CO)cnc(C)c2O3)c1`: inactive: -8.08%.
Same read-out and setting: the result for `CCCN(CCC)CCCNC(=O)C1CCN(S(=O)(=O)c2cccc3nsnc23)CC1` reads inactive: -5.43%.
With `CCOc1ccc(S(=O)(=O)N2CCN(c3ccc(C)cc3C)CC2)c2ccccc12`, the “activity change, negative = inhibition” value was inactive: -1.43%.
Same read-out and setting: the result for `O=C1COc2ccc(-c3cc(-c4ccc(F)cc4)c4c(n3)-c3ccccc3OC4)cc2N1` reads inactive: 1.47%; that for `CCN(C(=O)c1ccc2c(=O)n3c(nc2c1)CCCCC3)c1cc(C)ccc1C`, inactive: 0.985%.
For the molecule `Cc1ccc(C(=O)CC2(O)C(=O)N(Cc3ccccc3)c3ccc(Br)cc32)cc1` (stereo not given), the Potency was active: 10.4 µM.
Turning to `CSc1cccc(NC(=O)CN(C)S(=O)(=O)c2ccc3c(c2)CCCN3C(C)=O)c1`, the “activity change, negative = inhibition” value is inactive: -1.03%.
In the case of `CCCOc1cccc(C2c3c(oc4cc(C)c(C)cc4c3=O)C(=O)N2CCCN2CCOCC2)c1` (stereo not given), the “activity change, negative = inhibition” value is inactive: 5.17%.
`CCC(=O)N1CCc2cc(S(=O)(=O)NC(C(=O)NCCc3ccc(C)cc3)C(C)C)ccc21` (stereo not given): the “activity change, negative = inhibition” value is inactive: -6.39%.
Still for that read-out and setting: next, `COCc1cc(C)n(CC(=O)Nc2cccc(C(C)=O)c2)c(=O)c1C#N`: inactive: 4.49%.
The same measure, in the same setting: next, `Cc1ccc(C)c(C(=O)CSc2nc3cc(C(=O)NC4CCCC4)ccc3c(=O)n2CC2CCCO2)c1` (stereo not given): inactive: -6.04%; `CCOc1ccccc1C(=O)N1CCCCC1CCN1CCOCC1` (stereo not given): inactive: -6.14%.
Same read-out and setting: next, `Cc1ccc(-c2nc3cc(NC(=O)c4cc(Br)ccc4Cl)ccc3o2)cc1`: inactive: -10.9%; `CC(C)CCNC(=O)c1ccc2c(c1)N(C)C(=O)c1ccccc1S2`: inactive: 14.5%.
As to `CC1CCN(S(=O)(=O)c2cn(CC(=O)Nc3ccc(F)cc3)c(=O)c3ccccc23)CC1`, the “activity change, negative = inhibition” value is inactive: -21.3%.
Consider `CCOc1cc2[nH]c(=O)n(CCCCCC(=O)NC(C)CC)c(=O)c2cc1OCC` (stereo not given), for which the “activity change, negative = inhibition” value is inactive: -0.326%.
Same read-out and setting: next, `CC(C)c1nn2c(=O)cc(COC(=O)c3ccccc3Cl)nc2s1`: inactive: -9.86%; `O=C(O)CCn1ccc2cc(S(=O)(=O)N3CCCCC3)ccc21`: inactive: -4.13%.
As to `CCn1cc2nc(SCc3cccc(F)c3)n(CCc3ccccc3)c(=O)c2n1`, the “activity change, negative = inhibition” value is inactive: -7.03%.
Still for that read-out and setting: the result for `COc1ccc(-c2csc(-c3c(N)c(C(=O)c4ccccc4)n4ccccc34)n2)cc1` reads inactive: -3.83%; that for `O=C(NCc1ccccc1Cl)C1CCN(c2ncnc3c2nc2n3CCCCC2)CC1`, inactive: 0.612%.
On the same count and under the same terms, next, `Cc1nnc(NC(=O)CSCc2cc(=O)c3ccc(C)c(C)c3[nH]2)s1`: inactive: 0%; `Cc1cc(C)n2c(Nc3cccc(C(F)(F)F)c3)c(-c3ccsc3)nc2n1`: inactive: -3.66%.
With `CC(C)c1ccc(S(=O)(=O)c2cnc(SCC(=O)Nc3ccc(F)cc3F)nc2N)cc1`, the “activity change, negative = inhibition” value is inactive: -1.26%.
Take `Cc1ccc2oc(=O)c3cc(C(=O)Nc4cccc(C#N)c4)sc3c2c1`: the “activity change, negative = inhibition” value is inactive: -9.24%.
The same measure, in the same setting: the result for `Cc1cc(C)cc(-n2ccnc2SCC(=O)Nc2ccc(C)c(Cl)c2)c1` reads inactive: -16.1%.
Same read-out and setting: the result for `O=C(CN1CCN(c2ccc(Cl)cc2)CC1)Nc1ccc(F)c(F)c1` reads inactive: 3.96%; that for `O=C(Cn1nnnc1-c1ccccc1F)Nc1ccc(F)c(F)c1`, inactive: -3.17%; that for `COc1ccc(NC(=O)c2[nH]nc3c2CSc2ccccc2-3)c(OC)c1`, inactive: 4.44%.
Same read-out and setting: the result for `CCOc1ccccc1NC(=O)c1nnn(CC(=O)Nc2ccccc2CC)c1N` reads inactive: 1.93%; that for `CCOC(=O)N1CCc2c(sc3c2c(=O)n(-c2ccc(F)cc2)c(=O)n3CC(=O)c2ccccc2)C1`, inactive: -2.13%.
For the molecule `Cc1cccc(CN2C(=O)c3ccccc3Sc3ccc(C(=O)NCc4cccs4)cc32)c1`, the “activity change, negative = inhibition” value is inactive: -1.53%.
On the same count and under the same terms, next, `O=C(NCCc1ccccc1)C1COc2ccccc2C1` (stereo not given): inactive: -11.8%.
Still for that read-out and setting: the result for `CCc1ccc(NC(=O)c2cc(C)nn2-c2ccccc2)cc1` reads inactive: -7%; that for `CCOC(=O)c1c(C)n(-c2ccccc2)c2ccc(OC(=O)c3cc(OC)cc(OC)c3)cc12`, inactive: 10%; that for `Cc1cc(=O)n(CC(=O)NC(C)c2ccccc2)c2c1c(C)nn2C` (stereo not given), inactive: 5.18%.
As for `CCOC(=O)c1c(NC(=O)c2cc3ccccc3c(=O)o2)sc2c1CCC(C(C)(C)C)C2` (stereo not given), the “activity change, negative = inhibition” value is inactive: 2.71%.
The same measure, in the same setting: next, `CCOc1ccc(NC(=O)CCNS(=O)(=O)c2cccc3nsnc23)cc1`: inactive: -24.3%; `Cc1ccc(Nc2nc(C)c(NC(=O)c3ccc(C)cc3)c(Nc3ccc(C)cc3)n2)cc1`: inactive: -1.37%.
On the same count and under the same terms, the result for `CCS(=O)(=O)N1CCc2cc(C(=O)Nc3cc(OC)c(Cl)cc3OC)ccc21` reads inactive: 2.63%; that for `CCOc1ccc(C(=O)Nc2ccc3oc(-c4ccncc4)nc3c2)cc1`, inactive: 2.86%; that for `CCc1cccc(C)c1NC(=O)C(CC)Sc1nncn2c1cc1occc12` (stereo not given), inactive: -18%.
Still for that read-out and setting: the result for `CCC(=O)Nc1cc(-c2nc3ccccc3s2)c(Cl)cc1Cl` reads inactive: 4.35%; that for `CCCNc1nc2c(c(=O)n(C)c(=O)n2C)n1CC(O)COc1ccccc1` (stereo not given), inactive: 8.33%; that for `COc1ccc(NC(=O)c2oc3ccccc3c2NC(=O)COc2ccc(F)cc2)c(OC)c1`, inactive: -0.193%.
As for `Cn1c(=O)n(C)c2cc(NS(=O)(=O)c3ccc(C(C)(C)C)cc3)c(NCc3ccccc3)cc21`, the “activity change, negative = inhibition” value is inactive: 1.51%.
On the same count and under the same terms, the result for `Cc1cccc(C(=O)Nc2nnc(S(=O)(=O)N3CCCc4ccccc43)s2)c1` reads inactive: -1.11%.
On the same count and under the same terms, next, `Cc1ccc(NC(=O)Cn2cc(C(=O)C3CCCCC3)c3ccccc32)c(C)c1`: inactive: 0.965%; `O=C(c1ccc2c(c1)N(Cc1ccc(Cl)cc1)C(=O)c1ccccc1S2(=O)=O)N1CCc2ccccc21`: inactive: 1.56%.
Same read-out and setting: next, `CCC(C(=O)Nc1cccc(C#N)c1)n1nc(-c2ccccc2)ccc1=O` (stereo not given): inactive: -10.8%; `Cc1ccc(NC(=O)CCCn2nc(C)c3sc4ccccc4c3c2=O)c(Cl)c1`: inactive: -0.848%; `COC(=O)c1ccccc1NC(=O)CSc1nnc2cc(C)c3cc(C)cc(C)c3n12`: inactive: -5.4%.
For `Cc1ccc(-c2nnc(Nc3cccc(Br)c3)c3ccccc23)cc1S(=O)(=O)NCC1CCCO1` (stereo not given), the “activity change, negative = inhibition” value was inactive: -0.426%.
Take `O=C(NCc1ccc(F)cc1)C(=O)NCC(c1ccco1)S(=O)(=O)c1cccs1` (stereo not given): the “activity change, negative = inhibition” value was inactive: -8.29%.
In the case of `O=C(Cn1ccc2cc(S(=O)(=O)N3CCCC3)ccc21)NCc1ccccc1Cl`, the “activity change, negative = inhibition” value was inactive: -1.23%.
Same read-out and setting: the result for `CCOc1ccc(C2C(=O)N(C3CCCCCC3)CC(=O)N2CCc2ccc(Cl)cc2)cc1OC` (stereo not given) reads inactive: -1.82%; that for `CCN1c2ccccc2-c2nc(SCC(=O)Nc3cc(F)ccc3F)ncc2S1(=O)=O`, inactive: -7.38%.
Same read-out and setting: next, `CCOc1ccc(NC(=O)CCn2nc(C)c(S(=O)(=O)N3CCCCC3)c2C)cc1`: inactive: 0%; `Cc1nnc(NCc2ccc(F)cc2)c2c1nnn2Cc1ccccc1Cl`: inactive: -2.66%; `COc1ccccc1N1CCN(S(=O)(=O)c2c(C)sc3ncn(CC(=O)NCCN(C)C)c(=O)c23)CC1`: inactive: -3.01%.
Same read-out and setting: next, `CCc1ccc(N2C(=O)N(CC(=O)C(C)(C)C)c3ccccc3S2(=O)=O)cc1`: inactive: -6.79%; `O=C(NCCC1=CCCCC1)c1ccc2c(c1)N(Cc1ccc(Cl)cc1)C(=O)c1ccccc1S2(=O)=O`: inactive: -0.0119%.
`COc1ccc(OC)c(NC(=O)CSC2=Nc3ccccc3C3=NC(CCC(=O)NCCc4ccccc4)C(=O)N23)c1` (stereo not given): the “activity change, negative = inhibition” value was inactive: -1.15%.
Same read-out and setting: next, `Cc1c(Cl)cccc1NC(=O)Cn1cnc(S(=O)(=O)N2CCCC2)c1`: inactive: -7.32%; `COc1ccc(NC(=O)CC2C(=O)N(c3ccc(C)cc3)C(=O)N2Cc2ccc(C)cc2)cc1` (stereo not given): inactive: 0.385%; `CCN(CC)CCCNC(=O)c1nn(-c2ccc(OC)cc2)c(=O)c2c1c1ccccc1n2C`: inactive: 0.618%.
Same read-out and setting: the result for `O=c1c2ccccc2nc(N2CCN(c3cccc(Cl)c3)CC2)n1-c1ccccc1` reads inactive: 4.92%.
As to `CCC(C(=O)N1CCN(c2ccc(OC)cc2)CC1)n1nc(C)n2c(cc3occc32)c1=O` (stereo not given), the “activity change, negative = inhibition” value was inactive: -20.7%.
Turning to `Nc1ccc(S(=O)(=O)NC2(C(F)(F)F)NC(=O)N(c3cccc(Cl)c3)C2=O)cc1` (stereo not given), the “activity change, negative = inhibition” value was inactive: -16.7%.
Take `COC(=O)c1cccc(CN2C(=O)SC(Nc3ccc(Cl)cc3)C2=O)c1` (stereo not given): the “activity change, negative = inhibition” value is inactive: -16.9%.
On the same count and under the same terms, next, `COc1ccc(Nc2c3c(nc4nncn24)CCC3)cc1Cl`: inactive: -12.8%; `CCOC(=O)c1noc2ncnc(Nc3cccc(C(F)(F)F)c3)c12`: inactive: -21.4%; `O=C(Nc1ccccc1C(F)(F)F)N1CCC2(CC1)Oc1ccccc1C(=O)N2Cc1ccccc1F`: inactive: -5.94%.
On the same count and under the same terms, next, `COCCNC(=O)c1ccc2c(c1)N(Cc1c(F)cccc1Cl)C(=O)c1ccccc1S2`: inactive: -1.79%.
The same measure, in the same setting: the result for `CCOC(=O)c1c(C)oc2nc(C)nc(NCc3ccc(OC)cc3)c12` reads inactive: 2.92%.
For the molecule `CCCCOc1ccc(C(=O)Nc2nc3c(s2)CC(C)CC3)cc1` (stereo not given), the “activity change, negative = inhibition” value is inactive: -5.79%.
For `CCCc1cc(=O)[nH]c(Nc2ccc(C)c(O)c2)n1`, the “activity change, negative = inhibition” value was inactive: 7.97%.
Still for that read-out and setting: the result for `CC(=O)Nc1ccc(NC(=O)CCc2c(C)nc3c(c(C)nn3-c3ccccc3)c2C)cc1` reads inactive: -1.81%.
Regarding `Cc1cnc2c(c1SCC(=O)NCc1ccccc1Cl)c(=O)n(C)c(=O)n2C`, the “activity change, negative = inhibition” value is inactive: -0.273%.
Consider `CC(C)(Oc1ccc(Cl)cc1)C(=O)Nc1nnc2n1CCS2`, for which the “activity change, negative = inhibition” value is inactive: -1.86%.
Still for that read-out and setting: the result for `COc1cccc(C(=O)Nc2cccc(OCc3cc(=O)n4cccc(C)c4n3)c2)c1` reads inactive: 2.93%.
On the same count and under the same terms, the result for `Cc1ccc(NC(=O)CCC(=O)N2CCSc3ccccc32)cc1` reads inactive: -15.3%.
Same read-out and setting: the result for `CCCCNC(=O)CC1N=C2c3ccccc3N=C(SCC(=O)NCc3ccccc3Cl)N2C1=O` (stereo not given) reads inactive: 7.4%; that for `CCOc1ccc(NC(=O)Cn2cc(C(=O)c3ccccc3)c(=O)c3cc4c(cc32)OCCO4)cc1`, inactive: 4.5%.
As for `COC(=O)c1ccc(NC(=O)CC2C(=O)N(c3ccc(C)cc3)C(=O)N2Cc2ccc(OC)cc2)cc1` (stereo not given), the “activity change, negative = inhibition” value was inactive: -4.3%.
The same measure, in the same setting: next, `O=C(COc1ccccc1)Nc1nnc(SCc2cc(=O)c3ccccc3[nH]2)s1`: inactive: 5.82%; `Clc1ccc(-c2noc(-c3cccnc3N3CCN(c4ccccc4)CC3)n2)cc1`: inactive: 0.778%; `Cc1ccc(C)c(N2CCN(C(=O)c3nn(C)c4c3CS(=O)(=O)c3ccccc3-4)CC2)c1`: inactive: 5.52%.
Regarding `Cc1ccn2c(Nc3ccccc3C)c(-c3cccnc3)nc2c1`, the “activity change, negative = inhibition” value is inactive: 2.11%.
On the same count and under the same terms, next, `CCN(C(=O)CSc1nc2ccccc2n1CC(=O)N1CCCC(C)C1)c1ccccc1` (stereo not given): inactive: 0.791%.
Take `CCOc1ccc(CCNC(=O)C2CCN(Cc3nc(-c4ccccc4C)oc3C)CC2)cc1OCC`: the “activity change, negative = inhibition” value was inactive: 1.42%.

The record behind these values is PubChem BioAssay AID493208 (National Center for Advancing Translational Sciences (NCATS), 2011).
